Inhibition data for 96 compounds are collected here from PubChem BioAssay AID485344 (National Center for Advancing Translational Sciences (NCATS), 2010).

Each structure is given as a SMILES string. The whole screen tested about 340,000 compounds, of which about 6,900 (2%) were called active. No stated cut-off is given here; in the data, active means inhibition above about 30%; inactive means below that, where a call was filed. Only a part is listed here, and it is no random draw. Entries without a call were filed so in the source.

UniProt P14416, sequence (P14416 whole entry, looked up): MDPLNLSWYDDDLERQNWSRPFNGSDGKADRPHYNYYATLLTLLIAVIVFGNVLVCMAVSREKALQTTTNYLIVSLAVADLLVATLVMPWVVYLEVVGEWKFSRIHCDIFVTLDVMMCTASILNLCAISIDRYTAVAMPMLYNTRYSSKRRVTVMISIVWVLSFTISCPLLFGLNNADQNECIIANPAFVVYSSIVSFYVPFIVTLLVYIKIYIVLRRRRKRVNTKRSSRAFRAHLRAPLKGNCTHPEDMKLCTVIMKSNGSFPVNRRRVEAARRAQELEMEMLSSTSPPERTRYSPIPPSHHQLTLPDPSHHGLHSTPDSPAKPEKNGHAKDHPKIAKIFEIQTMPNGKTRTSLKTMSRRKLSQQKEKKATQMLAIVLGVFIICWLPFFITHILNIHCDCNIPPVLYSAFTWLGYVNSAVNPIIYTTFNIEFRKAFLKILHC

This test addresses D(2) dopamine receptor (Homo sapiens) (UniProt P14416). As to the kind of experiment: HTS Assay for Allosteric Antagonists of the Human D2 Dopamine Receptor: Primary Screen for Antagonists. Further: 0% is about no effect. The note with it: HEK293 TREx D2 cells, calcium flux, dopamine EC80; at 10 µM; stronger effect = higher value. In a few lines:
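Dopamine at EC80 is the agonist stimulus; test compounds precede it by 180 s. Calcium flux read kinetically in a force-coupled, inducible HEK293 T-REx D2 cell line.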
Background: Calcium assays in cells follow changes in intracellular calcium, usually with a dye or a luminescent sensor.
What is called inhibition is the drop in the measured response relative to a control, in per cent. In the case of `OCCC1CN(Cc2cccc3nonc23)CCN1C1CCCCC1` (stereo unspecified), the inhibition was active: 37.7%.
To `CCc1c(C)nc2nncn2c1Nc1ccc(Cl)cc1` belongs 11.4%; to `CCc1nc2ccccc2n2c(-c3ccccc3)c3c(=O)n(C)c(=O)n(C)c3c12`, -1.43%; to `COc1ccc(-n2c(=O)c3c4c(sc3n(Cc3ccc(C)cc3C)c2=O)CCC4)c(OC)c1`, -11.4%.
To `COc1ccc(Cl)cc1NC(=O)CSc1nnc(C)n2c1cc1occc12` belongs -10.7%; to `Brc1ccccc1OCCCCCN1CCOCC1`, active: 36.4%; to `O=C(NCc1ccccc1)C(=O)NCC(c1ccco1)S(=O)(=O)c1ccccc1` (stereo unspecified), -12%.
To `COc1ccc(N2CCN(C(CNC(=O)C(=O)NCc3ccc(F)cc3)c3cccnc3)CC2)cc1` (stereo unspecified) belongs -22.7%.
Take `CCCN(CCC)c1nn2c(=O)c(C(=O)NCc3cccc(OC)c3)cnc2s1`: the inhibition was 26.7%.
In the case of `Cc1cc2nn(-c3ccc(F)cc3)nc2cc1NC(=O)c1cc(Cl)ccc1Cl` it was -0.39%.
To `CCCCN1C(=O)C(O)(c2c(C)[nH]c3ccccc23)c2cc(Br)ccc21` (stereo unspecified) belongs -1.39%; to `Cc1ccc(CCNC(=O)CN2C(=O)COc3ccc(S(=O)(=O)N4CCC(C)CC4)cc32)cc1`, 3.58%; to `CCN1CCN(C(c2cccc(Cl)c2)c2c(O)cc(C)n(CCOC)c2=O)CC1` (stereo unspecified), 4.41%.
To `Cc1cc(OCC(=O)NCC2(N(C)C)CCCCC2)cc(C)c1Cl` belongs -13.9%; to `COc1cccc(C2=NS(=O)(=O)N(C)C(C(=O)Nc3cccc(O)c3)=C2)c1`, -3.85%.
Turning to `Cc1ccc(-c2nnc(SCC(=O)NCCC(C)C)nc2-c2ccc(C)cc2)cc1`, the inhibition amounted to 2.42%.
To `CCn1cc(C(=O)NCCCN(CC(C)C)CC(C)C)c(=O)c2cc(S(=O)(=O)N3CCc4ccccc4C3)ccc21` belongs -2.69%; to `Cc1cc(NC(=O)C2CCCN(S(=O)(=O)c3ccc(Br)s3)C2)ccc1Br` (stereo unspecified), -18.9%; to `COc1ccc(CC(=O)Nc2ccc(-c3nc4ccccc4s3)cc2Cl)cc1`, 18.1%.
In the case of `O=C1CC(c2ccccc2)Cc2[nH]c(=O)c(-c3nc(-c4ccc(F)cc4)cs3)cc21` (stereo unspecified) it was -13.9%; in that of `CC(C)Oc1ccc(CNC(=O)C2COc3ccccc3C2)cc1` (stereo unspecified), 26%; in that of `Cc1ccccc1-c1nc(CS(=O)CC(=O)NCCc2ccc(Cl)cc2)c(C)o1` (stereo unspecified), 7.82%.
In the case of `O=C(CN1C(=O)COc2ccc(S(=O)(=O)N3CCCC3)cc21)N1CCN(c2ccccc2F)CC1` it was -13.3%.
In the case of `O=C1CN(C(=O)C2CCCCC2)C(c2ccccc2)c2cc(F)ccc2N1` (stereo unspecified), the inhibition is -7.71%.
In the case of `CCOc1ccc(C2c3c(oc4ccc(C)cc4c3=O)C(=O)N2c2nc(C)c(C)s2)cc1OC` (stereo unspecified) it was -2.2%; in that of `CCOC(=O)c1cnc2ccc(OCC)cc2c1N1CCN(c2cccc(Cl)c2)CC1`, -10.3%; in that of `COc1ccc(-c2noc(-c3ccc(N4CCCCC4)c([N+](=O)[O-])c3)n2)cc1`, 15.3%.
To `CCCCCCOc1ccc(-c2nc3ccc(Br)cc3c(=O)o2)cc1` belongs 2.05%; to `Cc1ccc(-c2cc(C(=O)Oc3ccccc3)c3cccc(C)c3n2)cc1`, 22.4%; to `COc1ccccc1OCCCn1c(=O)oc2ccccc21`, active: 34.1%.
As to `Cc1nc(C(=O)NCC(=O)c2ccccc2)c(C(F)(F)F)o1`, the inhibition is active: 31.8%.
In the case of `Cc1sc(-c2cc3ccccc3oc2=O)nc1-c1ccc(Cl)cc1` it was -22.3%; in that of `c1ccc(C2C3=C(CCCC3)Nc3ncnn32)cc1` (stereo unspecified), active: 31.5%; in that of `COC(=O)c1cc(S(=O)(=O)N2CCN(c3ccc(C)cc3C)CC2)cn1C`, 13.9%.
To `Cc1csc2nc(COc3ccc(NC(=O)COc4ccc(F)cc4)cc3)cc(=O)n12` belongs 3.38%.
To `Cc1ccc(NC(=O)Cn2cc(S(=O)(=O)N3CCN(c4ccccc4F)CC3)c3ccccc3c2=O)cc1F` belongs 14.6%; to `CCOc1ccc(/C=C/c2nc(C#N)c(N(C)C)o2)cc1`, -7.88%; to `COc1ccc(N2CCN(C(CNC(=O)c3ccc(C)cc3)c3ccc4c(c3)OCO4)CC2)cc1` (stereo unspecified), -11.8%.
In the case of `CCOc1ccccc1CNC(=O)c1nn(C)c2c1CS(=O)(=O)c1ccccc1-2`, the inhibition was found to be 25.3%.
To `CC(C)c1ccc(CNc2nc(-c3ccco3)nn2S(=O)(=O)c2ccccc2)cc1` belongs 4.39%; to `CN1CCN(C(=O)c2cnn(-c3cccc(F)c3)c2C2CCN(C(=O)OC(C)(C)C)CC2)CC1`, 16.8%.
In the case of `Cc1cc(C)c(NC(=O)c2cc(CN3CCOCC3)on2)c(C)c1` it was 8.55%; in that of `CCc1ccc(NC(=O)C(Cc2ccccc2)NS(=O)(=O)c2ccc3c(c2)CCN3C(C)=O)cc1` (stereo unspecified), -1.76%; in that of `COc1ccc2cc(S(=O)(=O)c3ccccc3F)c(=O)oc2c1`, -4.81%.
In the case of `C#CCOc1ccc(C2C(C(=O)OC)=C(C)NC3=C2C(=O)c2ccccc23)cc1OCC` (stereo unspecified) it was 6.17%; in that of `CCOc1ccc(Sc2cc(C(=O)NCCCOC)c3ccccc3n2)cc1`, 9.29%.
Take `CCOC(=O)c1cc(-c2ccc(C)cc2)n(CCC(=O)NCc2ccccc2)c1C`: the inhibition was -4.12%.
To `Cc1ccc(-c2nc3scc(CCNS(=O)(=O)c4ccc(C)c(C)c4)n3n2)cc1` belongs 2.01%; to `Cc1ccc(-c2noc(-c3cccnc3NCc3ccc(Cl)cc3)n2)cc1`, 13.1%; to `Cc1cccc(OCC(=O)Nc2ccc(C(=O)OCc3cc(=O)n4nc(C5CC5)sc4n3)cc2)c1`, -16.1%.
Take `O=C(NCCc1nc2ccccc2n1CCOc1ccc(Cl)cc1)C1CCCCC1`: the inhibition was found to be 12.4%.
For `CCN(CC)c1ccc2cc(-c3nc4ccccc4n3C)c(=O)oc2c1`, the inhibition was active: 39.6%.
Turning to `CCN(CC)CCNC(=O)C1CCCN(c2nnc(C)c3c(C)n(-c4ccc(Cl)cc4)nc23)C1` (stereo unspecified), the inhibition came out at 5.11%.
In the case of `CCOc1ccc(NC(=O)CSc2nnc(CC)c(CC)n2)cc1` it was 2.83%; in that of `CCOc1ccc(-c2cn3c(n2)sc2cc(C(=O)NCCC4=CCCCC4)ccc23)cc1`, -17.3%; in that of `Cc1cccc(C)c1NC(=O)C1CCCN(S(=O)(=O)c2c(C)noc2/C=C/N(C)C)C1` (stereo unspecified), 4.07%.
In the case of `COc1ccccc1CNC(=O)c1ccc(NC(=O)N2CC(C)Sc3ccccc32)cc1` (stereo unspecified) it was 5.52%; in that of `O=C(COC(=O)c1cccs1)Nc1cccc(S(=O)(=O)N2CCOCC2)c1`, active: 36.4%.
To `COc1ccc(-n2ncc(C(=O)Nc3ccc(C)cc3Cl)c2C2CCN(C(=O)OC(C)(C)C)CC2)cc1` belongs 6.04%.
As to `CCOC(=O)c1ccc(NC(=O)CN2CCN(c3ccccc3)CC2)cc1`, the inhibition was active: 61.7%.
To `O=C(NC1CCN(Cc2ccccc2)CC1)c1ccc2c(c1)OCCCO2` belongs active: 30.3%; to `C=CCc1ccc(OCC(O)CN2CCC(Cc3ccccc3)CC2)c(OC)c1` (stereo unspecified), active: 41.2%.
To `CC(=O)c1ccc(N2CCN(C(=O)/C=C/c3ccc(S(=O)(=O)N4CCOCC4)cc3)CC2)cc1` belongs active: 49.7%; to `CCc1ccc(-c2[nH]c3c(c2-c2c(-n4cccc4)n(C)c(=O)[nH]c2=O)c(=O)[nH]c(=O)n3C)cc1`, -5.76%.
To `O=C(Nc1nnc(S(=O)(=O)N2CCCCC2)s1)c1ccc(Cl)cc1` belongs -6.79%.
For `CC(=O)Nc1ccc(NS(=O)(=O)c2ccc3c(c2)CCCN3C(C)=O)cc1`, the inhibition amounted to 15.8%.
To `O=C(Nc1ccc(F)cc1)c1ccc(-n2cnnc2)cc1` belongs -9.4%; to `Cc1cccc(-n2nnc(C(=O)NCc3ccccn3)c2N)c1`, active: 30.5%; to `Cc1ccccc1OCc1nc2c3cnn(-c4ccccc4Br)c3ncn2n1`, 3.9%.
In the case of `CCn1cc2nc(SCc3cc(C)ccc3C)n(Cc3ccc(C)cc3)c(=O)c2n1` it was -6.35%; in that of `Cc1oc(-c2ccccc2F)nc1Cn1c(SCc2ccccc2F)nc2ccncc21`, 0.521%.
In the case of `Cc1cccc(/C=N/NC(=O)c2cc3c(s2)-c2ccccc2CC3)c1` it was active: 31.8%.
As for `O=C(/C=C/c1cccc([N+](=O)[O-])c1)NCC1CCCO1` (stereo unspecified), the inhibition is active: 60.4%.
In the case of `Cc1ccc(C2c3cccn3CCN2S(=O)(=O)c2ccc([N+](=O)[O-])cc2)cc1` (stereo unspecified) it was -7.81%.
To `COc1ccc(Nc2oc(/C=C/c3ccc(F)cc3)nc2C#N)cc1` belongs -4.14%; to `COCCCn1c(=N)c(S(=O)(=O)c2ccccc2)cc2c(=O)n3cccc(C)c3nc21`, 6.74%.
To `Cc1ccc(NC2=Nc3ccccc3CC2)cc1` belongs active: 60.6%; to `CN(C)CCNC(=O)Cc1ccc(NC(=O)N2CCCCc3ccccc32)cc1`, 4.2%; to `CCOC(=O)c1sc(NC(=O)c2nc(SCC)ncc2Cl)c(C(=O)OCC)c1C`, -5.68%.
Take `COc1ccc2c(c1)NC1(O)c3ccccc3C(=O)C21O` (stereo unspecified): the inhibition is active: 32.3%.
To `Cc1nn(Cc2ccccc2)c(C)c1NC(=O)c1cc(C(C)C)on1` belongs -14.7%; to `CCOC(=O)c1cc(-c2ccc(C)cc2)n(CC(=O)Nc2cccc(C(C)=O)c2)c1C`, -4.81%.
To `COc1ccc(Cl)cc1NC(=O)c1c(C(=O)Nc2cccc(C)c2C)sc2nc(C)cc(=O)n12` belongs 16.1%; to `Cc1ccc2nc(N3CCN(C(=O)C4COc5ccccc5O4)CC3)sc2c1` (stereo unspecified), -2.17%.
In the case of `COC(=O)c1ccc(CSc2nc3c([nH]c4ccccc43)c(=O)n2-c2cccc(OC)c2)o1` it was -17.5%; in that of `Cc1ccnc(NS(=O)(=O)c2ccc(NC(=O)c3cc(=O)c4ccc(C)c(C)c4o3)cc2)n1`, -5.99%; in that of `COc1ccc(CNC(=O)c2cc3c(=O)n(Cc4cccs4)ccc3nc2C)cc1`, 20.1%.
Turning to `N#C/C(=C\c1ccc(-c2ccccc2[N+](=O)[O-])o1)C(=O)Nc1nc(-c2cccs2)cs1`, the inhibition is active: 32.1%.
In the case of `COc1ccc(-c2nc3ccccc3o2)cc1NC(=O)c1ccc(N2CCC(C)CC2)c([N+](=O)[O-])c1` it was 5.77%; in that of `CCCCNCCOCCOc1ccc(Cl)cc1Br`, active: 72.3%.
To `O=C(/C=C/c1ccco1)Nc1cc(Cl)ccc1C(=O)O` belongs active: 34.4%; to `CN(C)c1ccc(CNc2nc(-c3ccco3)nn2S(=O)(=O)c2ccc(Cl)cc2)cc1`, 8.78%; to `Cc1cc(=O)n2c(C(=O)Nc3ccc(C)c(C)c3)c(C(=O)Nc3ccccc3)sc2n1`, 22.5%.
To `CCc1cccc(C)c1NC(=O)C1CCCN(S(=O)(=O)c2cccc3nsnc23)C1` (stereo unspecified) belongs -2.94%.
For `CCN(C(=O)CSc1nnc(-c2ccc(Cl)cc2)o1)c1ccccc1`, the inhibition was -10.1%.
`O=C(CN1C(=O)C2CCCCN2c2ccc(C(=O)N3CCCC3)cc21)NCc1ccccc1` (stereo unspecified): the inhibition is 27.9%.
